Experimental data from publication PMC4336329 (PLoS ONE, 2015).
Among all 310,000 compounds or so, about 14,000 (4.5%) showed an effect of 50% or more. The effect is printed as a negative number. The list shows a part of the results.

Target: human ether-à-go-go-related gene (hERG) potassium channel (human, UniProt Q12809)
Test: primary screen, population patch clamp on CHO cells stably expressing hERG
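Note: peak tail current of the secondary pulse compared with the same well before compound.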

Chain of human ether-à-go-go-related gene (hERG) potassium channel (Q12809 whole entry, looked up): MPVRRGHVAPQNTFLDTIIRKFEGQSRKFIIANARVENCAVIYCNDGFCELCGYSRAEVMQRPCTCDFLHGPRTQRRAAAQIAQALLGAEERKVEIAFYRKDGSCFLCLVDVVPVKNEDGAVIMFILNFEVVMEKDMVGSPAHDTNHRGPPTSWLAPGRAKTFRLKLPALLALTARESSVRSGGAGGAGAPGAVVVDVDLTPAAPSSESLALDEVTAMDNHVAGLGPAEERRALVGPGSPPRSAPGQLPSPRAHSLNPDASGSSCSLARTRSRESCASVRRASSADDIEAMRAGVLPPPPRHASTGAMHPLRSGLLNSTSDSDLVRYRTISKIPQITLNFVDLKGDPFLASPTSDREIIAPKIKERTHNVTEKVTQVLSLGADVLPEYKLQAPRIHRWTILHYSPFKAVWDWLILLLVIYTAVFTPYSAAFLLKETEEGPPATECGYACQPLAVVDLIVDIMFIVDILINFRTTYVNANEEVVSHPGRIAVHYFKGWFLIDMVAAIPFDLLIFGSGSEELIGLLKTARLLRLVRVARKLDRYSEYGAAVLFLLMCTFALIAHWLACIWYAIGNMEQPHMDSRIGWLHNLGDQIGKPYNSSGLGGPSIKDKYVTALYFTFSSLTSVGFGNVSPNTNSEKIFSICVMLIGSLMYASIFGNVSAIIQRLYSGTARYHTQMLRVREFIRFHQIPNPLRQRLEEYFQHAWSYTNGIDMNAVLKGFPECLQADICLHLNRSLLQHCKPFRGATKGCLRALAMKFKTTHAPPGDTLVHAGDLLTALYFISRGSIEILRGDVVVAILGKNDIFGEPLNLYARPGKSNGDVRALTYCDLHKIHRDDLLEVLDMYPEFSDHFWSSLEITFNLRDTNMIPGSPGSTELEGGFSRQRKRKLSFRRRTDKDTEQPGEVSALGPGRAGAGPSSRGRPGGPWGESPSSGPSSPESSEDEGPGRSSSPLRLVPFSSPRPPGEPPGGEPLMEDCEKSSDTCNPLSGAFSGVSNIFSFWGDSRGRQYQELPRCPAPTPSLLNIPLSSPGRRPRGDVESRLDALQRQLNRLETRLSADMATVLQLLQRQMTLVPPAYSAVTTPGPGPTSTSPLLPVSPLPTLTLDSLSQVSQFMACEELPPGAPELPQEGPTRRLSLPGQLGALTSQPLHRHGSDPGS

SMILES | hERG current change (%, negative = inhibition) at 10uM [%]
COc1cccc(-c2nn(-c3ccccc3)cc2C(=O)NCC(=O)O)c1 | 17.5
COc1ccccc1N(CC(=O)NC1CCCC1)C(=O)CNC(=O)c1cccs1 | 12.7
CCC(NC(=O)OCc1ccccc1)C(=O)Oc1ccc2ccc(=O)oc2c1 (stereo not shown) | 15.7
O=C(/C(N=Nc1cccc([N+](=O)[O-])c1)=C(/O)c1ccc(Br)cc1)C(F)(F)F | 14.9
COCCNC(=S)N/N=C(\C)c1ccccc1F | 4.4
COc1cc(OC)cc(C(=O)Nc2ccc(NC(=O)c3ccco3)c(C)c2)c1 | -13.1
CC(=O)Nc1ccc2nc(NC(=O)COc3cccc(C)c3)sc2c1 | -3.77
COc1cccc(C2CNC3(CCCC(C)C3)c3[nH]c4ccccc4c32)c1OC.Cl (stereo not shown) | -23.6
Cn1c(SCC(=O)N/N=C/c2ccc([N+](=O)[O-])s2)nnc1-c1ccc(Cl)cc1 | -41.7
Cc1ccc(-n2nnnc2-c2cnc3cc4c(cc3c2C)OCO4)cc1 | 3.65
Cc1ccc(C)c(C2=NNC(=O)CC2)c1 | 2.5
O=C(c1cc(COc2ccc(F)cc2Cl)on1)N1CCCC(c2ccccc2)C1 (stereo not shown) | -5.56
O=C(COc1ccc(Cl)cc1)OCC(=O)N1CCCc2ccccc21 | 17.4
COc1ccc(NC(=O)COC(=O)c2ccc(S(=O)(=O)N(C)c3ccccc3OC)cc2)cc1OC | 14
COc1ccc2c(c1)-c1ccccc1S(=O)(=O)N2C | -9.76
COc1ccc(C(=O)NCC(C)CN(C)C)cc1 (stereo not shown) | -9.08
Cc1nc2c(C#N)cnn2c2c1CCN(Cc1ccccc1)N2C | -58
COc1ccccc1/C=N/NC(=O)c1cccc(NC(=O)c2ccccc2C)c1 | -4.64
CCCC(=O)c1ccc(N2CCN(C(=O)c3ccccc3Br)CC2)c(F)c1 | -23.7
Cc1onc(-c2c(F)cccc2Cl)c1C(=O)NNC(=O)C1CCN(Cc2cccc(F)c2)CC1 | -16.9
CN(C(=O)CO/N=C/c1ccc(Cl)cc1)c1ccccc1 | -44.2
CCCN1CCC(NC(=S)Nc2ccc(C(=O)OCC)cc2)CC1 | -18.2
CC(C)CC(NC(=O)C(CC(C)C)NC(=O)OC(C)(C)C)C(=O)O (stereo not shown) | 25.9
O=S(=O)(c1ccc(OCC2CO2)cc1)c1ccc(OCC2CO2)cc1 (stereo not shown) | 15.8
Cc1cc(C)c(S(=O)(=O)N2CCCCC2CCNC(=O)C(=O)NCc2ccco2)c(C)c1 (stereo not shown) | -6.51
COc1cccc(NC(=O)CSc2nc3n[nH]c(C)c3c(=N)n2-c2cccc(OC)c2)c1 | -8.71
CC(C)c1ccc(-c2c(C#N)c(N)nc(SCC(=O)N3CCCCC3)c2C#N)cc1 | 17.5
Cc1ccc(Cn2c(SCC(C)C)nc3c2c(=O)[nH]c(=O)n3C)cc1 | 4.21

SMILES | hERG current change (%, negative = inhibition) at 10uM [%]
COc1ccc2nc(SCC(=O)NC3CCCC3)c(C)cc2c1 | 4.08
O=C(O)c1ccc(S(=O)(=O)N2CCCC2)cc1 | 11.4
O=C1CCCN1CCCN1C(=O)N[C@@H](Cc2ccccc2)C1=O | 14.7
CC1=CSC2=NC(=O)/C(=C/c3cccc(OC(=O)c4ccco4)c3)C(=N)N12 | -1.35
Clc1cc(Cl)cc(CN2CCSCC2)c1 | 13.3
O.O=c1ccc2cc(OC3O[C@H](CO)[C@@H](O)[C@H](O)[C@H]3O)c(O)cc2o1 (stereo partly shown) | 9.76
CS(=O)(=O)N1CCC(C(=O)N2CCC(Cc3ccccc3)CC2)CC1 | -15.1
CC(C)C(NS(=O)(=O)c1ccc2c(c1)OCCO2)C(=O)NCCc1ccccn1 (stereo not shown) | 6.06
O=C(CC12CC3CC(CC(C3)C1)C2)NC(Cc1ccccc1)C(=O)O (stereo not shown) | 2.38
COc1ccccc1CCNC(=O)c1ccc(Br)s1 | 1.13
Cc1ccccc1OCc1nnc(SCC(=O)O)n1Cc1ccccc1 | 14.7
O=C(NCCCNC(=O)c1cc(Cl)ccc1Cl)c1ccco1 | 2.79
C/C(N)=C(/C#N)C(=O)CSc1nc2cc(Cl)ccc2s1 | -16.4
COc1ccc(CNC(=O)C(=O)N2CCC3(CC2)OCCN3S(=O)(=O)c2ccc(C)cc2)cc1 | -29.9
c1cncc(Oc2cccc(Oc3cccnc3)c2)c1 | 1.75
COc1ccc(OC)c(NC(=O)CCNS(=O)(=O)c2cccc3nonc23)c1 | 5.77
CCCCCCCCCCC[C@@H](C[C@@H]1OC(=O)[C@H]1CCCCCC)OC(=O)[C@H](CC(C)C)NC=O | -5.11
COc1ccc(C(=O)CN2C(=O)NC3(CCCc4ccccc43)C2=O)cc1 (stereo not shown) | -36.2
Cc1ccc(S(=O)(=O)Cn2nnnc2C(C(C)C)N2CCC(C(N)=O)CC2)cc1 (stereo not shown) | 19
COc1cc(/C=C(/C#N)c2nc3ccccc3c(=O)[nH]2)ccc1O | 13.4
O=[N+]([O-])c1[nH]cnc1/C=C/c1ccccc1 | 6.34
O=C(Cn1c(=O)cnc2ccccc21)N1CCCc2ccccc21 | 10.8
Cc1cc(C(=O)O)ccc1-n1c(C)cc(/C=C2\SC(=O)NC2=O)c1C | 12.1
COc1ccc(-c2noc(C3CCCN(C(=O)c4cccs4)C3)n2)cc1 (stereo not shown) | -21.1
COC(C(=O)NCc1ccccc1C)c1ccccc1 (stereo not shown) | 7.71
CC1CCCCC12NC(=O)N(CC(=O)N1CCN(S(=O)(=O)Cc3ccccc3)CC1)C2=O (stereo not shown) | -10.3
Cc1ccc(SCCN2CCN(Cc3ccccc3)CC2)cc1.O=C(O)C(=O)O | -37
